The whole screen tested about 310,000 compounds, of which about 2,200 (0.71%) showed an effect of 50% or more. Effects have a minus sign here. The list shows a part of the results.
target: human ether-à-go-go-related gene (hERG) potassium channel (human, UniProt Q12809); assay: primary screen, population patch clamp on CHO cells stably expressing hERG
Sequence (Q12809 whole entry, looked up): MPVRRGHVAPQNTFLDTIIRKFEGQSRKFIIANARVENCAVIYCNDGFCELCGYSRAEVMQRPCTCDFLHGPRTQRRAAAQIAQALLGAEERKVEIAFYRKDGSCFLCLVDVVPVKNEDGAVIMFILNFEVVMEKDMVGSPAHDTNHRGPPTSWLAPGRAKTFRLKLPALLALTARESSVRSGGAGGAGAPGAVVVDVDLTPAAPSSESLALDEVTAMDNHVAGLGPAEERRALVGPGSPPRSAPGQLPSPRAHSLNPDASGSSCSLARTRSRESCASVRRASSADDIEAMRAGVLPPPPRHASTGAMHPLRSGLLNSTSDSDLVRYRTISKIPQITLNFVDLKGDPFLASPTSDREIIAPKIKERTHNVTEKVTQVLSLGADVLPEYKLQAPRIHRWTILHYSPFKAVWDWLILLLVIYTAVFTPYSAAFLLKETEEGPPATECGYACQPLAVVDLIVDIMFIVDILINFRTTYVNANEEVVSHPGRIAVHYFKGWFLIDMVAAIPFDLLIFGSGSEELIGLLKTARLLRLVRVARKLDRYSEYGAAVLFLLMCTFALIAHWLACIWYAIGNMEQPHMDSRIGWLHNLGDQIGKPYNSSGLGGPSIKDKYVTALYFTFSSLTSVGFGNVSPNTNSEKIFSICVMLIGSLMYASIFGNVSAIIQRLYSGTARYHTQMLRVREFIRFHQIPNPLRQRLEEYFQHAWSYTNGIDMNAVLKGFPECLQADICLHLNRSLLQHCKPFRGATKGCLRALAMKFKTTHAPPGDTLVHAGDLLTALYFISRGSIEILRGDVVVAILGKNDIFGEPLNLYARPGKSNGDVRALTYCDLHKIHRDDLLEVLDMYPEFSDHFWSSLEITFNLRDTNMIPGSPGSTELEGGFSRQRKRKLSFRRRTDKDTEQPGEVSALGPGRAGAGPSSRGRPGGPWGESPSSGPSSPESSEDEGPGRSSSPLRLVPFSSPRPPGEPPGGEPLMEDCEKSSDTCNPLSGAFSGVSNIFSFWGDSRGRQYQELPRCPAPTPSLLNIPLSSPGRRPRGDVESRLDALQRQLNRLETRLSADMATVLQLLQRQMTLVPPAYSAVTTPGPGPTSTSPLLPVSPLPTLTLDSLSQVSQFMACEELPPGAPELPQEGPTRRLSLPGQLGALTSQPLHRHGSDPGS

Row | Structure (SMILES) | hERG current change (%, negative = inhibition) at 1uM [%]
1 | COc1ccc(OCc2cc(C(=O)N3CCOCC3)no2)c(Cl)c1 | 9.25
2 | O=C(O)c1cc(S(=O)(=O)Nc2ccc3oc(=O)sc3c2)ccc1O | 8.09
3 | CNC(=O)NC(=S)NC(=O)c1ccccc1Cl | 6.42
4 | Cl.O=C(O)c1ccc(Nc2ncnc3ccccc23)cc1 | 9.68
5 | CCc1ccc(-n2c(=O)c3c(C)c(C(=O)N(C)C)sc3n(CC(=O)NCC3CCCO3)c2=O)cc1 (stereo not drawn) | -5.42
6 | c1ccc(Cn2nnc3c(N4CCCC4)ncnc32)cc1 | 0.773
7 | Cc1ccc(C(=O)NCCNc2ncc(C(F)(F)F)cc2Cl)cc1[N+](=O)[O-] | -2.1
8 | CCOc1ccc(NC(=S)NCCCN2CCN(C3CCCCC3)CC2)cc1 | 0.716
9 | N#C/C(=C/c1cn(CC(=O)O)c2ccccc12)c1ccc(F)cc1 | -2.24
10 | Cc1ccc(C)c(OCC(=O)NC(Cc2c[nH]c3ccccc23)C(=O)O)c1 (stereo not drawn) | 16
11 | O=C(N/N=C/C(Cl)=C\c1ccccc1)c1cccs1 | 12.6
12 | COc1ccccc1N1CCN(C(=O)c2sc3nc(-c4ccccc4)cn3c2C)CC1 | -6.39
13 | CC(=O)c1ccc(NC(=O)CCNC(=O)c2ccccc2Cl)cc1 | -19.8
14 | COc1ccccc1N(CCC#N)C(=O)CSc1nnc2ccccn12 | 2.12
15 | N#Cc1c(/N=C/c2ccc(-c3ccccc3C(=O)O)o2)sc2c1CCCC2 | 18.3
16 | Cc1cccc(C2c3[nH]c4ccccc4c3CCN2C(=O)c2noc3c2CCCC3)n1 (stereo not drawn) | 2.76
17 | CCN(Cc1nc(-c2ccc(OC)c(OC)c2)no1)C(=O)c1ccoc1C | 15.5
18 | Cc1nn(CCCC(=O)NCc2ccccc2)c(C)c1[N+](=O)[O-] | 7
19 | CCCC(=O)N1CCN(c2nc(CC(C)C)c3c(c2C#N)CCC3)CC1 | 0.0417
20 | O=C(CSc1nc(Nc2ccccc2)nc(N2CCOCC2)n1)Nc1cc(Cl)ccc1O | 6.18
21 | O=C(O)c1cccc(Nc2ccc([N+](=O)[O-])cn2)c1 | 15.7
22 | NC(=O)c1c(N)sc(=S)n1CC1CCCO1 (stereo not drawn) | 10.9
23 | CC(C)CNC(=O)CCc1nc(-c2ccccc2)no1 | 1.87

Row | Structure (SMILES) | hERG current change (%, negative = inhibition) at 1uM [%]
24 | COc1ccccc1C(=O)Nc1ccc(Oc2nnc(-c3ccc(C)cc3)c3ccccc23)cc1 | 20.2
25 | CC1CC(C)CN(C(=S)SCc2nc(N)nc(Nc3ccccc3)n2)C1 (stereo not drawn) | 7.72
26 | CCNC(=S)N1CCN(c2ccccc2OCC)CC1 | 14.6
27 | CCOC(=O)c1[nH]cnc1C(=O)N[C@@H](C)c1ccccc1 | 11.1
28 | C[C@@H](CSc1ccc(Br)cc1)CN1CC[C@H](O)CCC1=O | 13.2
29 | O=C(CCC1CCCC1)NNC(=O)c1ccc(F)cc1 | -1.96
30 | COc1ccc(-c2nc3scc(-c4ccccc4)n3n2)cc1 | 11.8
31 | Cn1nc(C(F)(F)F)c(-c2ccccc2)c1NC(=O)c1ccco1 | 13.3
32 | COc1ccc(NC(=O)Nc2ccc(CC(=O)O)cc2)cc1 | 19.7
33 | CCN(CC)S(=O)(=O)c1ccc(NC(=S)NC(=O)C(C)C)cc1 | 3.03
34 | Cc1cccc(CC(C)NC(=O)c2cc(COc3ccc(F)cc3F)on2)n1 (stereo not drawn) | -22.7
35 | Cn1c(SCc2cccnc2)nc2c(c1=O)SCC2 | 2.1
36 | Nc1nc(SCC(=O)Nc2ncc(Cl)cc2Cl)n[nH]1 | 11.6
37 | O=c1c2oc3ccccc3c2[nH]c(=S)n1-c1ccc(F)cc1 | 10.3
38 | CCCOc1ccc(N2C(=O)CC(N(C(=O)c3ccco3)c3ccc(OCCC)cc3)C2=O)cc1 (stereo not drawn) | -8.67
39 | COC(=O)CSc1nc2cc(C)cc(C)c2cc1C#N | 13.2
40 | CC(=O)N(C)c1ccc(N=NC2C(=O)N(C(N)=S)N=C2C)cc1 (stereo not drawn) | 10.7
41 | CC(=O)c1ccc(N2CCN(CN3C(=O)CC4(CCCC4)C3=O)CC2)c(F)c1 | 6.48
42 | CCOC(=O)c1ccc(NC(=O)C2(c3ccc(OC)cc3)CCOCC2)cc1 | 4.96
43 | Cc1ccc(C(=O)C2CCN(CC(=O)NC3CCCCC3)CC2)cc1 | -13.6
44 | S=c1[nH]ncn1/N=C/c1ccccn1 | 2.63
45 | Cc1ccc(-c2noc(CSc3nnc(-c4ccncc4)n3-c3ccc(F)cc3)n2)cc1 | 6.46
